Measured values as given in publication PMC4932475, “Evaluation of P-Glycoprotein Inhibitory Potential Using a Rhodamine 123 Accumulation Assay” (Pharmaceutics, 2016).
Values joined by “and” are separate entries in the source; they are usually repeats but may differ in a detail not shown here. Identical values can stand only once. Like-named read-outs stand apart in the source and are kept apart here.

Assays:
P-gp [1] = test system: P-gp; parameters: method as in Poirier et al. [41]; details: digoxin efflux ratio, MDR1-transfected cells; ref Poirier et al. [41]; cited from earlier work
P-gp [2] = target: T1, P-gp (Homo sapiens, UniProt P08183); details: for rhodamine 123 accumulation in MCF7R cells: various concentrations, up to 100 µM
P-gp [3] = target: T1, P-gp; assay: cell-based
P-gp [4] = details: ratio of highest versus lowest IC50 from five experimental measurements; ref Lee et al. [11]; cited from earlier work
P-gp [5] = target: T1, P-gp; details: ref Poirier et al. [41], cited from earlier work; for Clinical Relevance: digoxin DDI relevance per study; for [I1] total plasma concentration / [I2] gut concentration: perpetrator in clinical digoxin DDI study
P-gp [6] = target: T1, P-gp; details: outcome versus clinic in brackets (TP, FP, TN, FN); for P-gp Inhibition Prediction (FDA Criteria) Digoxin IC50: IC50 from digoxin bidirectional transport assay of Poirier et al. [41]; for P-gp Inhibition Prediction (FDA Criteria) Rhodamine 123 IC50: IC50 from rhodamine 123 assay
MCF7 cells = assay: Rhodamine 123 accumulation in parental MCF7 cells; details: 50 µM, 5.25 µM rhodamine 123, 30 min

T1 sequence (P08183 whole entry): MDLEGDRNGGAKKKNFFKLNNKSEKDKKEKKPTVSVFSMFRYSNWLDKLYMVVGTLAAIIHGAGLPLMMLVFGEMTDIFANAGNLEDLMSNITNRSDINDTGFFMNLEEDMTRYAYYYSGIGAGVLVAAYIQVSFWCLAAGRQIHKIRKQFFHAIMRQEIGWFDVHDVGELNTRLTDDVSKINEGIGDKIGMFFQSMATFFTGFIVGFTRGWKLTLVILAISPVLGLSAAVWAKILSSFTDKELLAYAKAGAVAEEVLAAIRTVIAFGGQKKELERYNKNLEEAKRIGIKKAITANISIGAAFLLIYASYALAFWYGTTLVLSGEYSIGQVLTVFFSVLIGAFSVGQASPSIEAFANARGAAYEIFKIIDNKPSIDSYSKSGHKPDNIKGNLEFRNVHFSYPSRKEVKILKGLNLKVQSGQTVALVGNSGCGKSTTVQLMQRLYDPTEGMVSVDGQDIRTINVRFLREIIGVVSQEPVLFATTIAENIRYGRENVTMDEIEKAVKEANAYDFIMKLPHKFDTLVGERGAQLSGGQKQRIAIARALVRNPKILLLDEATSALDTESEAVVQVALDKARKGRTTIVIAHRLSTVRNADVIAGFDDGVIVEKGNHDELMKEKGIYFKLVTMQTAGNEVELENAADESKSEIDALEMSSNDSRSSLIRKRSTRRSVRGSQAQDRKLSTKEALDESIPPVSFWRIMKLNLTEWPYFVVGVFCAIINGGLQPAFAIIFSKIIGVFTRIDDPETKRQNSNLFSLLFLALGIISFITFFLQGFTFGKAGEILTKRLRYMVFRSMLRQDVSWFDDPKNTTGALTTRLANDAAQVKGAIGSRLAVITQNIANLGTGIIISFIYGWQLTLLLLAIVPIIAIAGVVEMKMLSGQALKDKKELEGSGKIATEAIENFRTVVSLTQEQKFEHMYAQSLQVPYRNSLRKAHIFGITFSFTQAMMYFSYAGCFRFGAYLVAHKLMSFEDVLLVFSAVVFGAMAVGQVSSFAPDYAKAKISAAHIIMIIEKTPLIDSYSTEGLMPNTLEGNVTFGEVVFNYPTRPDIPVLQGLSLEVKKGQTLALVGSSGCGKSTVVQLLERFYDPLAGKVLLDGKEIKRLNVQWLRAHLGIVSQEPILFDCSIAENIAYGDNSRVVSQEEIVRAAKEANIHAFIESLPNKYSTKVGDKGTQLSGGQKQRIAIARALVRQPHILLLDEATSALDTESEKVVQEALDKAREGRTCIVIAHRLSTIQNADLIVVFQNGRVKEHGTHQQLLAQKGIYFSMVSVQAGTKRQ

P-gp Inhibition Prediction (FDA Criteria) Digoxin IC50 (P-gp [6])	Compound	IC50 (P-gp [1])	[I1] total plasma concentration (P-gp [5])	[I2] gut concentration (P-gp [5])	also measured
+ (TP)	CCC(C)n1ncn(-c2ccc(N3CCN(c4ccc(OCC5COC(Cn6cncn6)(c6ccc(Cl)cc6Cl)O5)cc4)CC3)cc2)c1=O (stereo not drawn) [Itraconazole, itraconazole]	1.8 µM	0.95 µM	1134 µM	rhodamine 123 accumulation in MCF7R cells (P-gp [2]): not to increase; Clinical Relevance (P-gp [5]): + (clinical relevance: AUCi/AUC ≥ 1.25 and/or Cmaxi/Cmax ≥ 1.25)
+ (FP)	COC(=O)C1=C(C)NC(C)=C(C(=O)OCCN(C)Cc2ccccc2)C1c1cccc([N+](=O)[O-])c1 (stereo not drawn) [Nicardipine, nicardipine]	–	0.18 µM	250 µM	P-gp Inhibition Prediction (FDA Criteria) Rhodamine 123 IC50 (P-gp [6]): + (FP)
+ (TP)	CCOC(=O)C1=C(C)NC(C)=C(C(=O)OC)C1c1cccc([N+](=O)[O-])c1 (stereo not drawn) [Nitrendipine, nitrendipine]	18.2 µM	0.03 µM and 0.015 µM	222 µM and 111 µM	IC50 (P-gp [3]): 251 ± 43.8 µM; IC50 Range for P-gp Inhibition (-fold) (P-gp [4]): 72 -fold
+ (FP)	Cc1c(C)c2c(c(C)c1O)CCC(C)(COc1ccc(CC3SC(=O)NC3=O)cc1)O2 (stereo not drawn) [Troglitazone, troglitazone]	15.9 µM	3.62 µM	–	P-gp Inhibition Prediction (FDA Criteria) Rhodamine 123 IC50 (P-gp [6]): + (FP); IC50 (P-gp [3]): 44.1 ± 7.7 µM; IC50 Range for P-gp Inhibition (-fold) (P-gp [4]): 36 -fold; Clinical Relevance (P-gp [5]): − (non relevant DDI (ratio AUCi/AUC < 1.25 and ratio Cmaxi/Cmax < 1.25))

The remaining lines, values behind:

Compound	P-gp Inhibition Prediction (FDA Criteria) Digoxin IC50 (P-gp [6])	IC50 (P-gp [1])	[I1] total plasma concentration (P-gp [5])	[I2] gut concentration (P-gp [5])	also measured
COc1ccccc1OCCNCC(O)COc1cccc2[nH]c3ccccc3c12 (stereo not drawn) [Carvedilol, carvedilol]	–	1.3 µM	–	–	–
COc1cc2c(cc1OC)CN(CCc1ccc(NC(=O)c3cccc4c(=O)c5cccc(OC)c5[nH]c34)cc1)CC2 [Elacridar, elacridar]	–	–	–	–	dye accumulation in MCF7R cells (P-gp [2]; 1 µM, 5.25 µM rhodamine 123, 30 min): increased dye accumulation
COC(=O)C1=C(C)NC(C)=C(C(=O)OC(C)C)C1c1cccc2nonc12 (stereo not drawn) [Isradipine, isradipine]	–	7.7 µM	0.02 µM	54 µM	IC50 (P-gp [3]): 83.1 ± 10.8 µM; IC50 Range for P-gp Inhibition (-fold) (P-gp [4]): 24 -fold; Clinical Relevance (P-gp [5]): + (clinical relevance: AUCi/AUC ≥ 1.25 and/or Cmaxi/Cmax ≥ 1.25)
CN[C@H]1CC[C@@H](c2ccc(Cl)c(Cl)c2)c2ccccc21 [Sertraline, sertraline]	–	–	–	–	rhodamine 123 accumulation in MCF7R cells (P-gp [2]): not to increase
COc1ccc(CCN(C)CCCC(C#N)(c2ccc(OC)c(OC)c2)C(C)C)cc1OC (stereo not drawn) [Verapamil, verapamil]	–	–	–	–	rhodamine 123 level in MCF7 cells (MCF7 cells): did not alter
O[C@@H](COc1cccc2ncccc12)CN1CCN([C@@H]2c3ccccc3[C@@H]3[C@H](c4ccccc42)C3(F)F)CC1 [Zosuquidar, zosuquidar]	–	0.02 µM	–	–	–
COc1ccc2c3c([nH]c2c1)[C@H](C=C(C)C)N1C(=O)[C@@H]2CCCN2C(=O)[C@@H]1C3 [fumitremorgin C]	–	–	–	–	rhodamine 123 levels in MCF7R cells (P-gp [2]; 10 µM, 5.25 µM rhodamine 123, 30 min): failed to augment
CCCN(CCC)S(=O)(=O)c1ccc(C(=O)O)cc1 [probenecid]	–	–	–	–	rhodamine 123 levels in MCF7R cells (P-gp [2]; 2 mM, 5.25 µM rhodamine 123, 30 min): failed to augment
